Measured values as given in the supplement of paper PMC3334620.
In all, about 33,000 sequences were measured (“E-score (-0.5 to 0.5)”: median about -0.017, highest 2% from about 0.3 on). The list shows a part of the results.

These sequences were tested against T1, Sut1 (UniProt P53032) (assay: PBM E-score (8-mer binding enrichment) (E-score (-0.5 to 0.5)); higher = stronger / more preferred TF binding; most listed sequences are background and not binding sites). Conditions: protein concentration: 200 nM; construct: GST-full length.
T1 sequence: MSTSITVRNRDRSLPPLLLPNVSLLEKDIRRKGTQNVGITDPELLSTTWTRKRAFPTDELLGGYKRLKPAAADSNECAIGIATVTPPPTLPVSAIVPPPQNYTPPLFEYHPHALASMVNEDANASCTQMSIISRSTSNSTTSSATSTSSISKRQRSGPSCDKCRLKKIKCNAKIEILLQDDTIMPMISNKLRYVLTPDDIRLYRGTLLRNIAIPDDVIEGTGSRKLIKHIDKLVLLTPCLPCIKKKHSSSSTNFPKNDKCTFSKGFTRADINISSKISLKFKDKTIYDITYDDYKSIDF
Procedure, shortened: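 For each ungapped eight-base word taken together with its reverse complement, the Universal PBM Analysis Suite assigned an E-score. Binding data came from GST-tagged yeast transcription factors, applied at about 100-200 nM, on universal all-10-mer Agilent arrays made double-stranded by primer extension. Fluorescent anti-GST marked bound protein, and scans were normalised with masliner.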

Sequence	PBM E-score
TAAACGAA	0.263
ACGCGAAT	-0.0996
GGACTAGA	0.183
GCACCTAA	-0.0101
AGTCGGTG	-0.159
AATGCGAG	0.112
CACGATGG	-0.0935
TATTAACA	0.233
AGAAGTGG	-0.0491
AACAATCT	0.0933
ACCATTAT	0.00269
CGCGTCGC	-0.0356
AAGGTAAA	0.152
TGACATAA	0.165
ATCCTGGC	-0.149
AATTCAGC	-0.0828
AGCACGAC	-0.154
AATTTTGT	0.27
CACAGTCC	0.0564
AGCGGCTG	-0.173
GAAAGGGA	-0.0788
GCACTAAC	7e-05
GAACTCAA	-0.0301
CTGTGCTC	-0.0152
CGGCAGAC	-0.143

Sequence	PBM E-score
AGCGGTTG	-0.136
ACCAACGG	0.0195
ATGGTGCC	-0.227
AGCAGGGG	-0.175
AGGCGTCG	-0.205
CAGTTATG	0.0135
AGTATGCG	-0.112
CCCCGCCA	0.0248
AGACTTAT	0.0322
GCACCCGA	-0.149
AAATAATA	0.311
AACGTGCT	-0.167
TGTGCTAA	0.126
GGACTTTA	0.347
AACTCTCG	0.146
AACCTTAG	0.00759
GGACCCGA	-0.0142
GTGACAAA	-0.0491
TCGTGAAA	-0.115
TAAATACA	0.249
CGCGCAGA	0.0428
ATGGTGGG	-0.249
TAATGAAA	0.154
TACTTACA	0.115
AGGACATC	0.0505

Sequence	PBM E-score
CAGGCGAG	-0.24
AACTCCTC	0.0852
GCGGCATA	-0.18
ATCGGAAA	0.302
GCCTACCC	-0.252
GTTCAAGA	0.034
ATGGAGCA	-0.0739
CCGCCGTC	-0.153
GCCCTACC	-0.0916
CACACTAG	-0.06
ACGACGTG	-0.136
TGACAGCA	-0.0132
ACGAATGA	0.0196
GGCTACAA	-0.0173
CGACTTGA	0.06
ACCAGTGA	-0.0679
CTAGCCTC	-0.268
GAATTGAA	0.176
CCACTGTA	0.00351
AATCGGAC	0.338
AAGTCCAC	-0.139
GCGTATCA	0.024
CAGCGGCA	-0.249
GGCGTGAA	-0.145
ACTGAGCG	-0.248

Sequence	PBM E-score
CCTCCACG	-0.152
ATTTGCGA	0.173
CGGGTAGA	-0.182
AAGGGGAG	-0.297
CATCACCA	0.00625
ACCTTTTC	-0.0568
TCTAAAAA	0.171
CTGCAGTA	-0.124
TGAAAGAA	0.273
CCCGCCGC	0.101
GTTTGACA	0.0837
ACGCACGT	-0.151
ACGATAGA	-0.193
CCATGTTC	-0.134
AGATCCGG	0.182
GACGCGAA	-0.122
AAAAGAAT	0.249
CGCGTACC	0.0139
TACGACAA	0.151
CTACAGTC	-0.0316
ATCGCGGA	0.129
GTGCGAAC	-0.0608
AGCCTTTA	0.0463
ACAGGTAT	0.0961
AGAAGATG	0.027

Sequence	PBM E-score
ACCACTCC	0.17
ACATAACG	0.08
CCTTTATA	0.0454
CCCCGTGC	0.0476
ATTGCAGG	0.0125
TTTACAAA	0.123
AGATGGTG	-0.187
ATTGAAAT	0.311
ATCATCAG	0.0405
TATGTAAA	0.285
CCGGCGCG	-0.125
CGGTTGGA	-0.114
AACAAGCA	0.0347
CCGCTTCG	-0.114
AGTATCAA	0.194
CAACGCGA	-0.0162
GTTGGCCA	-0.0893
GAACGAGA	0.0625
ACCGCGCA	-0.018
ACGGACGC	0.0681
AAACGTCA	-0.0156
CCACTACG	-0.0483
GGTGGGCA	-0.255
GAGACAGA	0.104
ATTCGGTC	0.0799

Sequence	PBM E-score
CCACGACA	-0.0467
CAGGGAGG	-0.345
CTGTTATC	0.0957
ACGCTGGA	-0.00451
TAGTTGCA	0.0448
CGTCAACC	0.0396
GATATTTA	0.262
GCGGGTGA	-0.128
GTTTTAAA	0.296
CGTGCGGC	-0.0987
CAGAAGCG	0.0442
ACCGTAGC	-0.123
GTGTCCAA	0.0338
GTAATTAC	0.214
GCCGCAGC	-0.118
ACCTCATG	-0.261
GGAGAATA	0.118
GCCTCGAC	-0.203
ACGTAAGG	-0.169
AGTGGGAG	-0.0458
AGTGTCGC	-0.0929
ACAACCTG	-0.0712
ATAGATAT	0.23
ATACACCA	0.0476
AGATCTAG	-0.146

Sequence	PBM E-score
AGCATACT	-0.0279
ATTTGATA	0.22
CTCGTACC	-0.178
CCATACTA	0.105
TCTACGAA	-0.149
TCTGCAGA	-0.131
CGACTAAG	-0.125
GGCACACC	-0.275
ATTTTCCC	-0.105
GTATTTAA	0.227
CAGGATGC	-0.171
GAAAAGAA	0.12
AGCTGTGC	-0.246
AAGCATGC	-0.16
AGGGCCGA	-0.0391
ACGCGGCA	-0.177
CGGTAGCA	-0.0839
AAGTAAAT	0.28
ATGGACAC	0.0316
CTGCTTTC	0.0261
AGGGCTGA	-0.161
AGGTAGCG	-0.173
TACACATA	0.184
GAGGATAA	-0.13
ACTGAACA	0.0273

Sequence	PBM E-score
ACGCCGGC	0.154
GCATATGC	-0.184
AGCAAGAG	-0.153
AGAATGTA	0.0887
GGTTGCAA	0.00099
CCCGAACA	0.0735
AACTGCTT	0.0271
CGGAAATA	0.337
ATTGGTTA	0.121
AATAGCCC	-0.134
TACGCGGA	0.187
ACGCCGCG	-0.184
AAGTACCT	-0.0797
CGAAATTC	0.183
ATGCTGGC	-0.182
ACGATCAC	0.0166
CGTCCCGA	-0.181
CCCTAGAA	-0.0151
ACACGTAT	0.00676
CAGAACGG	0.0607
GACTATAA	0.205
AACCACCC	-0.281
ACTGATCC	-0.157
AATCACAG	-0.0326
CAATTACG	0.0305

Sequence	PBM E-score
AAACAAAT	0.262
GCAAAACC	-0.0114
CTGAAACC	-0.0547
CTACCGAC	0.0163
ATTTTGAC	0.142
AAAACGGT	-0.0604
GCCCAGCC	-0.184
GACACTAC	0.0616
ATACTCGC	-0.0142
CTAGAATA	0.226
GATCACGA	-0.142
CCCTACGG	-0.239
CGCGTAGC	-0.162
CTAACACC	0.0191
GGCGTAGA	-0.0873
CGAGCTCG	-0.0197
AATTCGCA	0.286
GGGCTCAA	-0.181
GGATCCAC	-0.103
